Screen size: about 310,000 compounds; about 14,000 (4.5%) showed an effect of 50% or more. The effect is printed as a negative number. The list shows a part of the results.
Molecular target: human ether-à-go-go-related gene (hERG) potassium channel (human, UniProt Q12809)
Test: primary screen, population patch clamp on CHO cells stably expressing hERG
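Further: peak tail current of the secondary pulse compared with the same well before compound.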

Chain of human ether-à-go-go-related gene (hERG) potassium channel (Q12809 whole entry, looked up): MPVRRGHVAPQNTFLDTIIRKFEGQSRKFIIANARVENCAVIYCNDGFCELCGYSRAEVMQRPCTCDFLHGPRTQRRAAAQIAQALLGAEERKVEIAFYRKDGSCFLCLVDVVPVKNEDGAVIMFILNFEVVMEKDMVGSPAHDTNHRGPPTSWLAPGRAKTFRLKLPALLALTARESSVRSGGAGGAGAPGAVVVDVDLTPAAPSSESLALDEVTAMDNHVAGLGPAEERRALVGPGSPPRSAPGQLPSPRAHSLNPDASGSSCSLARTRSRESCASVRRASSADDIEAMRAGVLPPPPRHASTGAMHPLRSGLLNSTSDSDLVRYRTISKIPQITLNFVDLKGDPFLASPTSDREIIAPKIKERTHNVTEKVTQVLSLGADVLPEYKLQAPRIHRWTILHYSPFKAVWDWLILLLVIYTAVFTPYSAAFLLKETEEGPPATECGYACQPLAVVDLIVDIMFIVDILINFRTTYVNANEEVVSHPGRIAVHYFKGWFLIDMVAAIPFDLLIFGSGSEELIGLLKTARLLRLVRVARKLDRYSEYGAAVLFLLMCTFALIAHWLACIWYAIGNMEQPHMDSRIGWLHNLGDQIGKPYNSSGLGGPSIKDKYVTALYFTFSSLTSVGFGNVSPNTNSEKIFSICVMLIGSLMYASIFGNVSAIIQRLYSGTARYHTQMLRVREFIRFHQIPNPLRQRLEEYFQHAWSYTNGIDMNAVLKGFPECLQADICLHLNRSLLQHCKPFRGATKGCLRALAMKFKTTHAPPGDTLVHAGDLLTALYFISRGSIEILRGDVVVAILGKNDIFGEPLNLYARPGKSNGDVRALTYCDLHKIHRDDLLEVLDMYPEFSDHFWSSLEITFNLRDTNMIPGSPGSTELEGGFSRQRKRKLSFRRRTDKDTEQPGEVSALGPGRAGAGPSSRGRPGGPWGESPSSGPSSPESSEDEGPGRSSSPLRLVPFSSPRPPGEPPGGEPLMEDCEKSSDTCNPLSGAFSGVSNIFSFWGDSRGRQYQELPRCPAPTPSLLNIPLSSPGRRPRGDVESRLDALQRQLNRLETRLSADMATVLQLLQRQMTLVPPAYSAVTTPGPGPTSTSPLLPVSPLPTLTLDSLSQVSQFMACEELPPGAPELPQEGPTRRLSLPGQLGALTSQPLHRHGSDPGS

Point of comparison: `CC1CCCC(C)N1C(=O)c1cc(-c2ccc(Cl)c(Cl)c2)on1` (stereo not shown), “hERG current change (%, negative = inhibition) at 10uM” value -2.64%. Against it:
- O=C(CNC(=O)c1ccccc1Br)N/N=C/c1cccs1 — higher, 4.8%
- CC(OC(=O)c1ccc(OCC2CCCO2)cc1)C(=O)N(C)Cc1ccccc1 (stereo not shown) — lower, -14.5%
- Cc1nc2c(nnn2Cc2ccccc2)c(=O)[nH]1 — higher, 14.3%
- CC(C)c1ccc2c(c1)c(SC(C)(C)C)c(CC(C)(C)C(=O)O)n2Cc1ccc(Cl)cc1 — higher, 2.82%
- COc1cc(NS(=O)(=O)c2ccc(NC(=O)C34CC5CC(CC(C5)C3)C4)cc2)ncn1 — lower, -4.59%
- COC(=O)c1sccc1-n1cccc1C(=O)C(=O)N1CC(C)OC(C)C1 (stereo not shown) — higher, 20.9%
- O=C1N(c2ccccc2)c2ccccc2C1(O)C(F)(F)F (stereo not shown) — higher, 4.2%
- CC(=O)C1(C)N(O)C(C)(C)C(c2cccs2)=[N+]1[O-] (stereo not shown) — higher, 18.2%
- CCN(CC)Cc1cc(CC(C(N)=O)C(N)=O)ccc1OC — higher, 8.16%
- O=C(COC(=O)c1ccccc1)NCc1cccs1 — higher, 21%
- COc1cc(Cl)c(C)cc1NC(=O)CSC — lower, -4.31%
- CCN(CC)C(=O)c1ccc(CS(=O)(=O)c2ccc(OC)cc2)o1 — higher, -0.122%
- N#C/C(=C\N1CCOCC1)c1ccccc1 — lower, -24.7%
- CCCSC1C(C)=C(C)C(=O)N1Cc1ccccc1 (stereo not shown) — higher, 3.05%
- Cc1nc(NC(=O)c2ccc3c(c2)OCCO3)ccc1Br — higher, 0.941%
- COc1ccccc1C(=O)n1nc(-c2cccnc2)nc1N — higher, 8.11%
- COc1ccc(C(=O)Nn2c(SCC(=O)NC3CCCCC3)nc3ccccc3c2=O)cc1 — higher, 0.473%
- COc1ccc(C(=O)NCCc2nnc(SCC(=O)Nc3ccccc3C(C)C)n2C)cc1 — lower, -13.3%
- COc1ccc(-c2c3c(nc4sc5c(=O)[nH]c(C)nc5c24)CCC3)cc1 — higher, 8.4%
- COc1ccc(C(=O)O/N=C2\C(=O)N(C)c3ccccc32)cc1 — lower, -9.98%
- CN(CC(=O)Nc1ccc(Cl)cc1)C(=O)c1ccc(S(=O)(=O)Nc2ccccc2)cc1 — lower, -9.55%
- CC(C)(C)C(=O)NC(NC(=O)C(C)(C)C)c1ccc([N+](=O)[O-])cc1 — higher, 8.18%
- O=C(NC(=O)N1CCN(c2cccc(Cl)c2)CC1)c1ccc(Cl)cc1 — lower, -44.3%
- S=C(Nc1ccc(Cl)cc1)N1CCCCC1 — higher, 4.69%
- Cc1nn(C)cc1CN(C)C(=O)c1nn2c(c1Br)NC(c1cccs1)CC2C(F)(F)F (stereo not shown) — lower, -18.3%
- CC(c1ccc(Cl)cc1)n1c(-c2ccc3ccccc3n2)n[nH]c1=S (stereo not shown) — higher, 19%
- Cc1onc(-c2c(F)cccc2Cl)c1C(=O)N1CCSCC1 — higher, 17.5%
- O=C(O)C1=C(C(=O)N2CCN(C(=O)c3ccco3)CC2)CCCC1 — higher, 1.67%
- O=C(Cn1nc(Cc2cccnc2)c2ccccc2c1=O)N1CCN(c2ccccn2)CC1 — lower, -23.1%
- O=C(O)c1ccc(NC(=S)N2CCCCC2)cc1 — higher, 19.8%
- Cc1ccn2c(CNCC3OCCc4ccccc43)c(C(=O)N3CCCCCC3)nc2c1 (stereo not shown) — lower, -62.9%
- COc1ccc(C(=O)NCC(=O)OCC(=O)c2ccc3c(c2)OCCO3)cc1 — lower, -5.36%
- O=C(COC(=O)c1cc(=O)[nH]c2ccccc12)NC(=O)NC1CCCCC1 — lower, -3.63%
- CCN(CC)C(=O)CCc1nnc(Cc2cccc(C(F)(F)F)c2)o1 — higher, 11.5%
- COc1ccccc1NC(=O)NC1CCS(=O)(=O)C1 (stereo not shown) — higher, 16.2%
- COc1ccc(CNC(=O)CN2CCN(C(c3ccccc3)c3ccccc3)CC2)cc1 — higher, 10.3%
- O=C1c2ccccc2NC(c2ccccn2)N1c1ccccc1F (stereo not shown) — higher, 10.9%
- O.O=C1NC2(O)C(=O)c3ccccc3C2(O)N1 (stereo not shown) — higher, 11%
- Cn1cccc1CC(=O)NNC(=S)Nc1ccc(F)cc1 — higher, 5.91%
- O=C(CNC(=O)c1ccco1)NCC(=O)OCc1ccc(Cl)cc1 — lower, -11.1%
- COc1ccc2c(=O)c3c(=O)n(-c4ccccc4)c(-c4ccc(C)cc4)nc3oc2c1 — higher, 11.3%
- CN(CC(=O)Nc1ccc(F)c(F)c1F)C(=O)CCCc1nc2ccccc2c(=O)[nH]1 — lower, -20.6%
- Cc1cc(C)c(C)c(S(=O)(=O)NCC(=O)Nc2sc3c(c2C(N)=O)CCCC3)c1C — higher, 25.4%
- Cc1nc(C)c(C(=O)O)s1 — higher, 18.8%
- COc1ccc(S(=O)(=O)Nc2ccc(S(=O)(=O)Nc3nccs3)cc2)cc1 — higher, 19.9%
- Cc1cc(C)nc(N2CCN(c3nnnn3-c3ccccc3)CC2)n1 — higher, 9.05%
- CCC(C)(C)NC(=O)CN(CC1CCCO1)C(=O)CCC(=O)Nc1nccs1 (stereo not shown) — higher, 7.52%
- O=C(CSc1nnc(CNC(=O)c2cccs2)o1)NCc1ccc(F)cc1 — lower, -11.2%
- COc1cc(NC(=O)Cc2ccccc2)c(C(=O)O)cc1OC — higher, 14.2%
- CCOC(=O)C1CCN(C2=NC(=O)/C(=C/c3ccccc3OC)S2)CC1 — lower, -22.9%
- Cc1noc(C)c1COc1cccc(C(=O)NCc2ccccc2Cl)c1 — lower, -11.3%
- CC1CC(C)CN(C(=O)c2cc3c(=O)n4ccccc4nc3s2)C1 (stereo not shown) — lower, -27%
- CCOC(=O)C1=CC[C@H]2c3c(c4ccc(OC)cc4n3C)C(=O)C1N2S(=O)(=O)c1ccc(C)cc1 — lower, -15.6%
- O=C(N/N=C/c1cc2ccccc2nc1Cl)[C@H]1C[C@@H]1c1ccccc1 — higher, 2.36%
- COc1ccc2c(c1)/C(=C/c1cnc[nH]1)C(=O)N2 — higher, 1.23%
- CC1=C(C)CC(C(=O)NNC(=O)c2ccccc2O)C(C(=O)O)C1 (stereo not shown) — higher, 7.38%
- Cc1nn(CC(=O)N(C)C2CCS(=O)(=O)C2)c(C)c1[N+](=O)[O-] (stereo not shown) — higher, 19.3%
- COc1cccc(CN(Cc2ccccc2F)S(=O)(=O)c2ccc(S(=O)(=O)NCc3ccccc3)cc2)c1 — higher, 28%
- Br.CC1CN2C(c3ccc(Cl)cc3)=CSC2=N1 (stereo not shown) — lower, -33.5%
- Cc1nc(N2CCN(S(=O)(=O)c3ccc(Br)cc3)CC2)c2c(C)c(C)sc2n1 — lower, -10.7%
- Cc1ccc(S(=O)(=O)NCCC(=O)Nc2ccc(C)c(Cl)c2)cc1C — higher, -1.46%
- Cc1ccc(S(=O)(=O)Nc2ccccc2/C=N/c2nc3ccccc3n2C)cc1 — lower, -13.5%
- COc1ccc(C(=O)N2CCCC(Nc3ccc(C)c(C)c3)C2)cc1 (stereo not shown) — lower, -12.5%
- COc1ccc(-c2nc(CN3CCCCC3CCc3ccccn3)c(C)o2)cc1 (stereo not shown) — lower, -90.7%
- O=C(COc1ccccc1)NC1CCSc2ccccc21 (stereo not shown) — higher, 0.0355%
- COc1cccc(Oc2cnc(N)nc2-c2ccc(OC)cc2O)c1 — lower, -29%
- CC(C(=O)Nc1cc([N+](=O)[O-])ccc1Cl)N1CCN(c2ccc(O)cc2)CC1 (stereo not shown) — lower, -13.3%
- COCCn1cnnc1SCC(=O)Nc1ccccc1C(=O)Nc1ccc2c(c1)OCO2 — higher, 13.5%
- COc1ccc(-c2noc(CCC(=O)Nc3cc(Cl)c(OC)cc3OC)n2)cc1 — higher, 6.64%
- CC(=O)N(CN1C(=O)c2ccc([N+](=O)[O-])cc2C1=O)c1cccc(C(=O)O)c1 — higher, 12.7%
- COC(=O)CCCC1=CC2=CC(=O)C(C)(OC(=O)c3cccs3)C(=O)C2=CN1C1CCCC1 (stereo not shown) — lower, -5.91%
- CN1CCN(C(CC(=O)Nc2cccc(O)c2)C(=O)O)CC1 (stereo not shown) — higher, 0.38%
- Cc1c(NC(=O)c2cc3ccccc3o2)c(=O)n(-c2ccccc2)n1C — higher, -2.23%
- Cc1ccc(CN(C)C(=O)CCc2nc3sc4c(c3c(=O)[nH]2)CCCC4)o1 — higher, 3.28%
- CCn1c(SCC(=O)N2CCCCC2C)nnc1-c1ccc(S(=O)(=O)N2CCN(C)CC2)cc1 (stereo not shown) — lower, -6.68%
- CC(=S)c1c(C)cc2cc(C)ccn12 — higher, 15.9%
- Cc1ccccc1C(=O)N1CCC(C(=O)N2CCN(S(=O)(=O)c3ccccc3F)CC2)CC1 — higher, 20.8%
- O=C(CN1C(=O)CC(c2ccccc2)S(=O)(=O)c2ccccc21)NC1CCCC1 (stereo not shown) — lower, -15.9%
- CCC(=O)n1nc(-c2ccc(OC)cc2)nc1N — higher, -1.79%
- Cc1cc(/C=N/NC(=O)COc2cccc3cccnc23)c(C)n1-c1ccc(O)cc1 — higher, 0.881%
- CCOC(=O)c1c(C(C#N)C#N)cc(C)nc1C — higher, 8.69%
- COc1ccc(-c2c(C(C)=O)c(C)n(C)c2C)cc1 — lower, -5.72%
- CN(C)c1ccc(N=Nc2ccc(S(N)(=O)=O)cc2)cc1 — higher, 17.9%
- Cc1ccc(O)c(NC(=O)c2cc([N+](=O)[O-])ccc2Cl)c1 — lower, -6.06%
- CCOC(=O)C(CSCC(=O)c1ccc(Cl)cc1)NC(=O)OC(C)(C)C (stereo not shown) — lower, -9.55%
- CCOC(=O)/C(C#N)=N/Nc1ccccc1C#N — lower, -13.6%
- Cc1ccc(NC(=O)CNCC(c2ccccc2)N(C)C)cc1F.O=C(O)C(=O)O (stereo not shown) — lower, -38.1%
